In the supplement of paper PMC10037445:
The full ranking holds about 2,900 compounds; the median of “IRF Lucia reporter activity, fold change vs agonist alone” is about 0.9, and the highest 2% start at about 2.8. This is one part of the list.

Columns and labels:
RAW-Dual [1] = test: IRF Lucia reporter activity, fold change vs agonist alone; cytotoxicity flag (confluency mask): not cytotoxic; higher = enhanced IRF activity
Outline: (§1)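 Supernatant from RAW-Dual macrophages was read after 20 hours for IRF by QuantiLuc luminescence and for NF-κB by QuantiBlue absorbance at 620 nm. The cells (50,000 cells/well in DMEM, 384-well plates, 37 °C, 5% CO2) had received 50 nL of library stock by pin tool and, 1 h later, a PRR agonist. Reporter activity is expressed relative to agonist-alone wells as fold change, and wells were flagged cytotoxic if IncuCyte confluency was under 70% of agonist controls in both mask sets.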

RAW-Dual [2] = test: IRF Lucia reporter activity, fold change vs agonist alone; higher = enhanced IRF activity; details: library stock concentration (final ~1000-fold dilution): 10 mM, agonist: MPLA (TLR4) […]
Outline: as §1

RAW-Dual [3] = test: IRF Lucia reporter activity, fold change vs agonist alone; cytotoxicity flag (confluency mask): cytotoxic (confluency <70% of control); higher = enhanced IRF activity
Outline: as §1

[4] = agonist: 3'3'-cGAMP (STING) 10 ug/mL
[5] = cytotoxicity flag (confluency mask): not cytotoxic
[6] = cytotoxicity flag (confluency mask): cytotoxic (confluency <70% of control)

Question: Which “IRF Lucia reporter activity” value (RAW-Dual [1]; [4]) does the source give for `Oc1ccc2ccccc2c1SSc1c(O)ccc2ccccc12` (library stock concentration (final ~1000-fold dilution): 10 mM) here?
Answer: 0.995

Question: And the “IRF Lucia reporter activity” value (RAW-Dual [1]; agonist: LPS (TLR4) 0.1 ug/mL)?
Answer: 1.07

Question: With `Oc1ccc2ccccc2c1SSc1c(O)ccc2ccccc12` as the molecule, how does the “IRF Lucia reporter activity” value (RAW-Dual [2]; [5]) read?
Answer: 1.02

Question: With `COc1cc2nc(N(C)CCCNC(=O)C3CCCO3)nc(N)c2cc1OC` (centres undefined) as the molecule, how does the “IRF Lucia reporter activity” value (RAW-Dual [2]; [5]) read?
Answer: 1.09

Question: What does the source list for `COc1cc2nc(N(C)CCCNC(=O)C3CCCO3)nc(N)c2cc1OC` (centres undefined) (library stock concentration (final ~1000-fold dilution): 10 mM)?
Answer: IRF Lucia reporter activity (RAW-Dual [1]; [4]): 0.589; IRF Lucia reporter activity (RAW-Dual [1]; agonist: LPS (TLR4) 0.1 ug/mL): 0.979

Question: For `CCOC(=O)COc1ccc(/C=C2\SC(=S)NC2=O)cc1OC` (library stock concentration (final ~1000-fold dilution): 10 mM), which “IRF Lucia reporter activity” value (RAW-Dual [1]; [4]) is on record?
Answer: 0.652

Question: And the “IRF Lucia reporter activity” value (RAW-Dual [1]; agonist: LPS (TLR4) 0.1 ug/mL)?
Answer: 0.528

Question: `CC(CCc1ccccc1)NCC(O)c1ccc(O)c(C(N)=O)c1.Cl` (centres undefined) was tested. Which “IRF Lucia reporter activity” value (RAW-Dual [2]; [5]) did it give?
Answer: 1.02

Question: What does the source list for `CC(CCc1ccccc1)NCC(O)c1ccc(O)c(C(N)=O)c1.Cl` (centres undefined) (library stock concentration (final ~1000-fold dilution): 10 mM)?
Answer: IRF Lucia reporter activity (RAW-Dual [1]; [4]): 1.08; IRF Lucia reporter activity (RAW-Dual [1]; agonist: LPS (TLR4) 0.1 ug/mL): 0.97

Question: For `CCCCc1nc2cc(/C=C/C(=O)NO)ccc2n1CCN(CC)CC`, which “IRF Lucia reporter activity” value (RAW-Dual [2]; [6]) is on record?
Answer: 0.241

Question: What does the source list for `CCCCc1nc2cc(/C=C/C(=O)NO)ccc2n1CCN(CC)CC` (library stock concentration (final ~1000-fold dilution): 10 mM)?
Answer: IRF Lucia reporter activity (RAW-Dual [3]; [4]): 0.0582; IRF Lucia reporter activity (RAW-Dual [3]; agonist: LPS (TLR4) 0.1 ug/mL): 0.291

Question: Which results are given for `CC(C)c1cc(-c2n[nH]c(=O)n2-c2ccc3c(ccn3C)c2)c(O)cc1O` (library stock concentration (final ~1000-fold dilution): 10 mM)?
Answer: IRF Lucia reporter activity (RAW-Dual [3]; [4]): 0.435; IRF Lucia reporter activity (RAW-Dual [3]; agonist: LPS (TLR4) 0.1 ug/mL): 0.585

Question: With `CC(C)c1cc(-c2n[nH]c(=O)n2-c2ccc3c(ccn3C)c2)c(O)cc1O` as the molecule, how does the “IRF Lucia reporter activity” value (RAW-Dual [2]; [6]) read?
Answer: 1.07

Question: How did the “IRF Lucia reporter activity” value (RAW-Dual [3]; [4]) turn out when `NS(=O)(=O)OC[C@H]1C[C@@H](Nc2ccnc3cc(-c4cccc(SC(F)(F)F)c4)nn23)[C@H](O)[C@@H]1O` (library stock concentration (final ~1000-fold dilution): 10 mM) was run?
Answer: 0.036

Question: What about the “IRF Lucia reporter activity” value (RAW-Dual [3]; agonist: LPS (TLR4) 0.1 ug/mL) of the same molecule?
Answer: 0.0261

Question: `NCC(O)(c1ccc(Cl)cc1)c1ccc(-c2cn[nH]c2)cc1` (centres undefined) (library stock concentration (final ~1000-fold dilution): 10 mM) was tested. Which “IRF Lucia reporter activity” value (RAW-Dual [1]; [4]) did it give?
Answer: 0.154

Question: And the “IRF Lucia reporter activity” value (RAW-Dual [1]; agonist: LPS (TLR4) 0.1 ug/mL)?
Answer: 0.324

Question: `NCC(O)(c1ccc(Cl)cc1)c1ccc(-c2cn[nH]c2)cc1` (centres undefined) was tested. Which “IRF Lucia reporter activity” value (RAW-Dual [2]; [5]) did it give?
Answer: 0.269

Question: Which results are given for `COC1CCC(N2C(=O)CNc3ncc(-c4ccc(C(C)(C)O)nc4)nc32)CC1` (centres undefined) (library stock concentration (final ~1000-fold dilution): 10 mM)?
Answer: IRF Lucia reporter activity (RAW-Dual [1]; [4]): 0.15; IRF Lucia reporter activity (RAW-Dual [1]; agonist: LPS (TLR4) 0.1 ug/mL): 0.145

Question: `CN1C(=O)C(NC(=O)c2n[nH]c(Cc3ccccc3)n2)COc2ccccc21` (centres undefined) (library stock concentration (final ~1000-fold dilution): 10 mM) was tested. Which “IRF Lucia reporter activity” value (RAW-Dual [1]; [4]) did it give?
Answer: 0.866

Question: What about the “IRF Lucia reporter activity” value (RAW-Dual [1]; agonist: LPS (TLR4) 0.1 ug/mL) of the same molecule?
Answer: 0.968

Question: What does the source list for `CCCc1nn(C)c2c(=O)[nH]c(-c3cc(S(=O)(=O)N4CCN(C)CC4)ccc3OCC)nc12.CS(=O)(=O)O` (library stock concentration (final ~1000-fold dilution): 10 mM)?
Answer: IRF Lucia reporter activity (RAW-Dual [1]; [4]): 1.08; IRF Lucia reporter activity (RAW-Dual [1]; agonist: LPS (TLR4) 0.1 ug/mL): 0.86

Question: For `CCCc1nn(C)c2c(=O)[nH]c(-c3cc(S(=O)(=O)N4CCN(C)CC4)ccc3OCC)nc12.CS(=O)(=O)O`, which “IRF Lucia reporter activity” value (RAW-Dual [2]; [5]) is on record?
Answer: 0.997

Question: `CCC1OC(=O)C(C)(F)C(=O)C(C)C(OC2OC(C)CC(N(C)C)C2O)C(C)(OC)CC(C)C(=O)C(C)C2N(CCCCn3cc(-c4cccc(N)c4)nn3)C(=O)OC12C` (centres undefined) was tested. Which “IRF Lucia reporter activity” value (RAW-Dual [2]; [5]) did it give?
Answer: 1.72

Question: `CCC1OC(=O)C(C)(F)C(=O)C(C)C(OC2OC(C)CC(N(C)C)C2O)C(C)(OC)CC(C)C(=O)C(C)C2N(CCCCn3cc(-c4cccc(N)c4)nn3)C(=O)OC12C` (centres undefined) (library stock concentration (final ~1000-fold dilution): 10 mM) was tested. Which “IRF Lucia reporter activity” value (RAW-Dual [1]; [4]) did it give?
Answer: 1.18

Question: And the “IRF Lucia reporter activity” value (RAW-Dual [1]; agonist: LPS (TLR4) 0.1 ug/mL)?
Answer: 2.35

Question: For `O=C1c2ccccc2C(=O)C1c1ccc(Cl)cc1` (library stock concentration (final ~1000-fold dilution): 10 mM), which “IRF Lucia reporter activity” value (RAW-Dual [1]; [4]) is on record?
Answer: 1.02

Question: What about the “IRF Lucia reporter activity” value (RAW-Dual [1]; agonist: LPS (TLR4) 0.1 ug/mL) of the same molecule?
Answer: 0.944

Question: With `O=C1c2ccccc2C(=O)C1c1ccc(Cl)cc1` as the molecule, how does the “IRF Lucia reporter activity” value (RAW-Dual [2]; [5]) read?
Answer: 0.984

Question: What does the source list for `Cc1cc(C)c(-c2csc(NC(=O)c3ccccc3)n2)c(C)c1` (library stock concentration (final ~1000-fold dilution): 10 mM)?
Answer: IRF Lucia reporter activity (RAW-Dual [1]; [4]): 1.75; IRF Lucia reporter activity (RAW-Dual [1]; agonist: LPS (TLR4) 0.1 ug/mL): 0.664

Question: Which “IRF Lucia reporter activity” value (RAW-Dual [2]; [5]) does the source give for `Cc1cc(C)c(-c2csc(NC(=O)c3ccccc3)n2)c(C)c1` here?
Answer: 1.23

Question: How did the “IRF Lucia reporter activity” value (RAW-Dual [2]; [5]) turn out when `O=C(O)COCCN1CCN(C(c2ccccc2)c2ccc(Cl)cc2)CC1` (centres undefined) was run?
Answer: 1.02

Question: Which results are given for `O=C(O)COCCN1CCN(C(c2ccccc2)c2ccc(Cl)cc2)CC1` (centres undefined) (library stock concentration (final ~1000-fold dilution): 10 mM)?
Answer: IRF Lucia reporter activity (RAW-Dual [1]; [4]): 0.975; IRF Lucia reporter activity (RAW-Dual [1]; agonist: LPS (TLR4) 0.1 ug/mL): 1.19

Question: Which results are given for `CC(C)NCC(C(=O)N1CCN(c2ncnc3c2C(C)CC3O)CC1)c1ccc(Cl)cc1` (centres undefined) (library stock concentration (final ~1000-fold dilution): 10 mM)?
Answer: IRF Lucia reporter activity (RAW-Dual [1]; [4]): 0.847; IRF Lucia reporter activity (RAW-Dual [1]; agonist: LPS (TLR4) 0.1 ug/mL): 1.02

Question: `CC(C)NCC(C(=O)N1CCN(c2ncnc3c2C(C)CC3O)CC1)c1ccc(Cl)cc1` (centres undefined) was tested. Which “IRF Lucia reporter activity” value (RAW-Dual [2]; [5]) did it give?
Answer: 1.07
